The least precise scores are not listed. Two further conditions of the source, in which the scores hardly spread, are not listed. Names with del lack the residues named; names with ins carry added residues between the positions named. For some assays here: The concentration of ogerin is not given here.
B1: GPR68, Q15743 (parent)
chain: MGNITADNSSMSCTIDHTIHQTLAPVVYVTVLVVGFPANCLSLYFGYLQIKARNELGVYLCNLTVADLFYICSLPFWLQYVLQHDNWSHGDLSCQVCGILLYENIYISVGFLCCISVDRYLAVAHPFRFHQFRTLKAAVGVSVVIWAKELLTSIYFLMHEEVIEDENQHRVCFEHYPIQAWQRAINYYRFLVGFLFPICLLLASYQGILRAVRRSHGTQKSRKDQIQRLVLSTVVIFLACFLPYHVLLLVRSVWEASCDFAKGVFNAYHFSLLLTSFNCVADPVLYCFVSETTHRDLARLRGACLAFLTCSRTGRAREAYPLGAPEASGKSGAQGEEPELLTKLHPAFQTPNSPGSGGFPTGRLA

Columns and labels:
[1] = variants of: B1; assay: cAMP reporter score (Enrich2 score, wild type = 0); higher = more signal; HEK293T, FACS bins
[2] = variants of: B1; assay: surface expression score (Enrich2 score, wild type = 0); higher = more signal; HEK293T, FACS bins

Work on MANITADNSSMSCTIDHTIHQTLAPVVYVTVLVVGFPANCLSLYFGYLQIKARNELGVYLCNLTVADLFYICSLPFWLQYVLQHDNWSHGDLSCQVCGILLYENIYISVGFLCCISVDRYLAVAHPFRFHQFRTLKAAVGVSVVIWAKELLTSIYFLMHEEVIEDENQHRVCFEHYPIQAWQRAINYYRFLVGFLFPICLLLASYQGILRAVRRSHGTQKSRKDQIQRLVLSTVVIFLACFLPYHVLLLVRSVWEASCDFAKGVFNAYHFSLLLTSFNCVADPVLYCFVSETTHRDLARLRGACLAFLTCSRTGRAREAYPLGAPEASGKSGAQGEEPELLTKLHPAFQTPNSPGSGGFPTGRLA [G2A] yielded a cAMP reporter score ([1]; pH 5.5) of 0.256, a cAMP reporter score ([1]; pH 6) of -0.567 and a cAMP reporter score ([1]; pH 6, modulator: ogerin) of -0.048. For the same variant, the cAMP reporter score ([1]; pH 6.5, modulator: ogerin) was 0.112 and the surface expression score [2] was -0.123.

For MCNITADNSSMSCTIDHTIHQTLAPVVYVTVLVVGFPANCLSLYFGYLQIKARNELGVYLCNLTVADLFYICSLPFWLQYVLQHDNWSHGDLSCQVCGILLYENIYISVGFLCCISVDRYLAVAHPFRFHQFRTLKAAVGVSVVIWAKELLTSIYFLMHEEVIEDENQHRVCFEHYPIQAWQRAINYYRFLVGFLFPICLLLASYQGILRAVRRSHGTQKSRKDQIQRLVLSTVVIFLACFLPYHVLLLVRSVWEASCDFAKGVFNAYHFSLLLTSFNCVADPVLYCFVSETTHRDLARLRGACLAFLTCSRTGRAREAYPLGAPEASGKSGAQGEEPELLTKLHPAFQTPNSPGSGGFPTGRLA [G2C], the cAMP reporter score ([1]; pH 5.5) was 0.612, the cAMP reporter score ([1]; pH 6) was -0.403 and the cAMP reporter score ([1]; pH 6, modulator: ogerin) was 0.702. The cAMP reporter score ([1]; pH 6.5, modulator: ogerin) was 0.011 and the surface expression score [2] was -0.013.

MDNITADNSSMSCTIDHTIHQTLAPVVYVTVLVVGFPANCLSLYFGYLQIKARNELGVYLCNLTVADLFYICSLPFWLQYVLQHDNWSHGDLSCQVCGILLYENIYISVGFLCCISVDRYLAVAHPFRFHQFRTLKAAVGVSVVIWAKELLTSIYFLMHEEVIEDENQHRVCFEHYPIQAWQRAINYYRFLVGFLFPICLLLASYQGILRAVRRSHGTQKSRKDQIQRLVLSTVVIFLACFLPYHVLLLVRSVWEASCDFAKGVFNAYHFSLLLTSFNCVADPVLYCFVSETTHRDLARLRGACLAFLTCSRTGRAREAYPLGAPEASGKSGAQGEEPELLTKLHPAFQTPNSPGSGGFPTGRLA [G2D] showed a cAMP reporter score ([1]; pH 5.5) of 0.048, a cAMP reporter score ([1]; pH 6) of 0.332 and a cAMP reporter score ([1]; pH 6, modulator: ogerin) of -0.005. For the same variant, the cAMP reporter score ([1]; pH 6.5, modulator: ogerin) was 0.184 and the surface expression score [2] was -0.436.

MENITADNSSMSCTIDHTIHQTLAPVVYVTVLVVGFPANCLSLYFGYLQIKARNELGVYLCNLTVADLFYICSLPFWLQYVLQHDNWSHGDLSCQVCGILLYENIYISVGFLCCISVDRYLAVAHPFRFHQFRTLKAAVGVSVVIWAKELLTSIYFLMHEEVIEDENQHRVCFEHYPIQAWQRAINYYRFLVGFLFPICLLLASYQGILRAVRRSHGTQKSRKDQIQRLVLSTVVIFLACFLPYHVLLLVRSVWEASCDFAKGVFNAYHFSLLLTSFNCVADPVLYCFVSETTHRDLARLRGACLAFLTCSRTGRAREAYPLGAPEASGKSGAQGEEPELLTKLHPAFQTPNSPGSGGFPTGRLA [G2E] showed a cAMP reporter score ([1]; pH 5.5) of -0.118, a cAMP reporter score ([1]; pH 6) of 0.442 and a cAMP reporter score ([1]; pH 6, modulator: ogerin) of -0.095. The cAMP reporter score ([1]; pH 6.5, modulator: ogerin) was -0.341 and the surface expression score [2] was -0.031.

— the GPR68 mutational scans of Howard et al. (2025)
